The other results are listed elsewhere or left out. Single values are uncertain, as repeats are few or missing.
Experiments:
Assay in all cases: cell count relative to DMSO control; melanoma cells; higher = more viable cells
Conditions in all cases: library dose: low library concentration; 72 h
MZ2-MEL = tested on: MZ2-MEL
MeWo = tested on: MeWo
RPMI7951 = tested on: RPMI7951
RVH-421 = tested on: RVH-421
SkMel28 = tested on: SkMel28
SkMel2 = tested on: SkMel2
SkMel30 = tested on: SkMel30
SkMel5 = tested on: SkMel5
UACC257 = tested on: UACC257
UACC62 = tested on: UACC62
WM115 = tested on: WM115
WM1716 = tested on: WM1716
WM1745 = tested on: WM1745
WM3526 = tested on: WM3526
WM3619 = tested on: WM3619
WM451Lu = tested on: WM451Lu
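Further: cell number obtained by counting DAPI-stained nuclei in high-throughput microscope images with image analysis software, screen run in 1,536-well plates.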

| SMILES | cell count (MZ2-MEL) [%] | cell count (MeWo) [%] | cell count (RPMI7951) [%] | cell count (RVH-421) [%] | cell count (SkMel28) [%] | cell count (SkMel2) [%] | cell count (SkMel30) [%] | cell count (SkMel5) [%] | cell count (UACC257) [%] | cell count (UACC62) [%] | cell count (WM115) [%] | cell count (WM1716) [%] | cell count (WM1745) [%] | cell count (WM3526) [%] | cell count (WM3619) [%] | cell count (WM451Lu) [%] |
| --- | --- | --- | --- | --- | --- | --- | --- | --- | --- | --- | --- | --- | --- | --- | --- | --- |
| C=C(c1ccc(C(=O)O)cc1)c1cc2c(cc1C)C(C)(C)CCC2(C)C [Bexarotene] + Cc1cc(SCc2sc(-c3ccc(C(F)(F)F)c(F)c3)nc2C)ccc1OCC(=O)O [GW0742] (first compound 2 µM, partner dose 2 µM) | 96.8 | 90.7 | 79.3 | 86.3 | 74.4 | 87.8 | 87.9 | 90.4 | 108 | 85.7 | 101 | 86.7 | 94.9 | 86.1 | 107 | 82.1 |
| C[C@@H](N)c1ccc(C(=O)Nc2ccnc3[nH]ccc23)cc1 + C/C(O)=C(\C#N)C(=O)Nc1cc(Br)ccc1Br [LFM-A13] (first compound 0.4 µM, partner dose 2 µM) | 70.9 | 92 | 75.7 | 97.6 | 73.2 | 107 | 93.6 | 73.7 | 78.7 | 78.5 | 99.1 | 66.9 | 87.3 | 109 | 108 | 87.8 |
| C=CCNC1=C2C[C@@H](C)C[C@H](OC)[C@H](O)[C@@H](C)/C=C(\C)[C@H](OC(N)=O)[C@@H](OC)/C=C\C=C(/C)C(=O)NC(=CC1=O)C2=O [Tanespimycin] + Cc1cc(SCc2sc(-c3ccc(C(F)(F)F)c(F)c3)nc2C)ccc1OCC(=O)O [GW0742] (first compound 0.002 µM, partner dose 2 µM) | 106 | 96.6 | 84.7 | 92.3 | 90.8 | 110 | 91.2 | 95.6 | 114 | 89.7 | 93.4 | 103 | 90.8 | 103 | 92.3 | 180 |
| CCN(CC)CCNC(=O)c1c(C)[nH]c(/C=C2\C(=O)Nc3ccc(F)cc32)c1C [sunitinib] + C/C(O)=C(\C#N)C(=O)Nc1cc(Br)ccc1Br [LFM-A13] (first compound 0.4 µM, partner dose 2 µM) | 99.8 | 81.9 | 101 | 147 | 84.7 | 109 | 68.5 | 111 | 96.4 | 91.4 | 101 | 117 | 82.9 | 74.1 | 106 | 78.3 |
| CC(=O)c1c(C)c2cnc(Nc3ccc(N4CCNCC4)cn3)nc2n(C2CCCC2)c1=O [palbociclib] + O=C(Oc1ccc([N+](=O)[O-])cc1)N1CCC(C(O)(c2ccc3c(c2)OCO3)c2ccc3c(c2)OCO3)CC1 [JZL184] (first compound 0.04 µM, partner dose 1 µM) | 76.8 | 73.2 | 76.3 | 86.4 | 74.1 | 79.9 | 72.8 | 75.2 | 87.5 | 73.1 | 67.2 | 51.5 | 73.5 | 62.2 | 80.1 | 78 |
| CC1(C)CCC(c2ccc(Cl)cc2)=C(CN2CCN(c3ccc(C(=O)NS(=O)(=O)c4ccc(N[C@H](CCN5CCOCC5)CSc5ccccc5)c(S(=O)(=O)C(F)(F)F)c4)cc3)CC2)C1 + Cc1cc(SCc2sc(-c3ccc(C(F)(F)F)c(F)c3)nc2C)ccc1OCC(=O)O [GW0742] (first compound 0.4 µM, partner dose 2 µM) | 97 | 66.9 | 60.6 | 94 | 102 | 88.9 | 69.5 | 74.4 | 112 | 114 | 91.1 | 84.3 | 6.17 | 96.2 | 47.5 | 84.4 |
| O=C(Nc1cc(C(F)(F)F)cc(C(F)(F)F)c1)c1cc(Cl)ccc1O + O=C(Oc1ccc([N+](=O)[O-])cc1)N1CCC(C(O)(c2ccc3c(c2)OCO3)c2ccc3c(c2)OCO3)CC1 [JZL184] (first compound 0.016 µM, partner dose 1 µM) | 102 | 92.6 | 102 | 113 | 84.2 | 100 | 108 | 86.8 | 93.8 | 99.7 | 91.3 | 101 | 97 | 78.8 | 98.5 | 89.7 |
| C=CCNC1=C2C[C@@H](C)C[C@H](OC)[C@H](O)[C@@H](C)/C=C(\C)[C@H](OC(N)=O)[C@@H](OC)/C=C\C=C(/C)C(=O)NC(=CC1=O)C2=O [Tanespimycin] + C/C(O)=C(\C#N)C(=O)Nc1cc(Br)ccc1Br [LFM-A13] (first compound 0.002 µM, partner dose 2 µM) | 95.5 | 103 | 94.9 | 75.1 | 101 | 99.7 | 105 | 101 | 86.6 | 107 | 98.3 | 82.3 | 105 | 91.9 | 93.5 | 105 |
| O=C(Nc1cc(C(F)(F)F)cc(C(F)(F)F)c1)c1cc(Cl)ccc1O + Cc1cc(SCc2sc(-c3ccc(C(F)(F)F)c(F)c3)nc2C)ccc1OCC(=O)O [GW0742] (first compound 0.016 µM, partner dose 2 µM) | 1.78 | 107 | 116 | 96.9 | 94.5 | 107 | 101 | 113 | 90 | 93 | 95.7 | 109 | 94.4 | 92.7 | 94.6 | 92.1 |
